± gives the standard deviation of the averaged measurements. This is one part of the list.

The assay deals with PfAP2-I AP2 domain 3 (GST-tagged). As to the kind of experiment: gcPBM binding intensity (ln(normalized median fluorescence intensity)); higher = stronger DNA binding. In a few lines: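 DNA-binding domains from P. falciparum, fused to GST and produced in E. coli, were put on an Agilent 4 × 180k double-stranded probe array for 1 h in 1× PBS holding 1% milk, 0.2 mg/ml BSA, 0.5% salmon testes DNA and 0.03% Triton X-100. Probes were primer-extended, 36 bp long and drawn from intergenic genomic regions, with negative controls included. After Alexa488 anti-GST antibody detection and a 488 nm scan, binding intensity was set as the highest Masliner-normalised natural-log median intensity across replicate spots of either probe orientation.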
Regarding “GAGAAAAATAAATACACACACATAAATAAATACATA [CACACA_site5102]”, the “gcPBM binding intensity (ln)” value is 7.79 ± 0.61.

Turning to “TATGTATATTTTAATTGTACGTGTATGGTTGTAAAT [XGTACX_site8738]”, the “gcPBM binding intensity (ln)” value worked out at 8.21 ± 0.33.

“TTAATGTTATATGTGTGTACATATAAGTTTAGTAAA [XGTACX_site4651]”: the “gcPBM binding intensity (ln)” value stood at 7.92 ± 0.25.

For CAGTAGTTTTTATGGGTGCAAAACATATATATAACA, the “gcPBM binding intensity (ln)” value was 10.8 ± 0.6.

Consider “ATATATATATCAAAATGTACAAAAATAGAATTTAAA [XGTACX_site8292]”, for which the “gcPBM binding intensity (ln)” value was 8.64 ± 0.21.

As for “AAAATTAAAATATCACGTACGAAGAAAAAATTAAGA [XGTACX_site6437]”, the “gcPBM binding intensity (ln)” value stood at 7.86 ± 0.54.

Take “TACACCCACCAACACACACACACACTAATAAAAAAA [CACACA_site8060]”: the “gcPBM binding intensity (ln)” value amounted to 8.15 ± 0.13.

As to “CCTTTCCTAGCACATGCACACAAAAAAAAAAAAAAA [CACACA_site8396]”, the “gcPBM binding intensity (ln)” value was determined as 8.7 ± 0.23.

For the sequence “AAACGGCTATTAAAATGTACATGTAAATATATTAAA [XGTACX_site918]”, the “gcPBM binding intensity (ln)” value turned out to be 7.96 ± 0.33.

For the sequence “AATACATATGGGTGTACACATTATATATATATATAT [CACACA_site4601]”, the “gcPBM binding intensity (ln)” value worked out at 9.34 ± 0.36.

As to “ATCTTTTTACTTAATACACACACACCCAAAAAAAAA [CACACA_site8221]”, the “gcPBM binding intensity (ln)” value was determined as 8.59 ± 0.19.

Regarding “CATGAATATTTATACATGCACACTAAAATAAAGAAT [CACACA_site2412]”, the “gcPBM binding intensity (ln)” value came to 8.48 ± 0.74.

Regarding “GAGGGTATAATAAAAGCACACACAAAGATATAAATA [CACACA_site9087]”, the “gcPBM binding intensity (ln)” value was 8.68 ± 0.18.

Take “GAAAATATTACATACACGCACACATTAATATATTTA [CACACA_site2604]”: the “gcPBM binding intensity (ln)” value amounted to 8.26 ± 0.52.

Consider “ACATTTTGTAAAGAATGTACATATATATATATATTC [XGTACX_site8004]”, for which the “gcPBM binding intensity (ln)” value worked out at 7.79 ± 0.35.

Regarding “TATATATATATATACACACACACACCCCAAAGCGTA [CACACA_site64]”, the “gcPBM binding intensity (ln)” value turned out to be 9.75 ± 0.52.

For “AAAAAATGCGACATGTGTACACATATATATATATAT [XGTACX_site1679]”, the “gcPBM binding intensity (ln)” value is 9.79 ± 0.46.

For “ATTATGAATTTTAATTGTACATTATTATAGAATGTA [XGTACX_site619]”, the “gcPBM binding intensity (ln)” value is 7.4 ± 0.48.

Turning to “AATAATTCTTAAAGGTGTACAATATGTATATAAGAA [XGTACX_site595]”, the “gcPBM binding intensity (ln)” value came to 8.38 ± 0.32.

In the case of “AGTTATTTTTATATTTCACACACATATACTTTTACA [CACACA_site9357]”, the “gcPBM binding intensity (ln)” value came to 7.98 ± 0.69.

As for “AAATTTTTTATTAGTAGTACGCATAAATATATGTAT [XGTACX_site1934]”, the “gcPBM binding intensity (ln)” value was found to be 7.92 ± 0.22.

For the sequence “AAAAATTCTTCCCAAGCATGCGCGCGTAAAATATTT [TGCATGCA_site77]”, the “gcPBM binding intensity (ln)” value was determined as 7.79 ± 0.67.

As for “AAAAAAAAAAGAAAAGGTACACAGAATATATATATA [XGTACX_site6914]”, the “gcPBM binding intensity (ln)” value turned out to be 9.3 ± 0.12.

For “AAAAAAATAAGACACACACACAAAAAAATAAAAATA [CACACA_site6357]”, the “gcPBM binding intensity (ln)” value is 7.86 ± 0.43.

For the sequence “ATTTTCTATATCTTTCAACACACAAATTTTTTTTTC [CACACA_site7918]”, the “gcPBM binding intensity (ln)” value was found to be 7.91 ± 0.63.

As for “TACATCAAACAAGTATGTACATATATATATATATAT [XGTACX_site7415]”, the “gcPBM binding intensity (ln)” value was 9.3 ± 0.49.

For the sequence “AATAAATAGTAGTAGGTGCTACTATATTATATATAT [GTGCAC_site9452]”, the “gcPBM binding intensity (ln)” value turned out to be 8.73 ± 0.59.

In the case of “TATGTAATAATAAACGGTACACTATATTGTATGAAA [XGTACX_site4648]”, the “gcPBM binding intensity (ln)” value was determined as 7.75 ± 0.78.

In the case of “GCATATGATGAGCATATAATCATAAGAAAAAAAAAA [CACACA_negctrl_site701]”, the “gcPBM binding intensity (ln)” value was determined as 7.66 ± 0.79.

As to “TATATATATATAGATGCATGCAATTACATATAACAA [TGCATGCA_site118]”, the “gcPBM binding intensity (ln)” value was 9.14 ± 0.057.

In the case of TTGTGTACATATTAAGTGCATATATATATATATATA, the “gcPBM binding intensity (ln)” value worked out at 10 ± 0.47.

As for “TATTTTGAAATGGAAAGGATATAGAACTTAAACAAA [CACACA_negctrl_site1530]”, the “gcPBM binding intensity (ln)” value is 7.75 ± 0.47.

Consider “AACATACGACAATACGCACACATATAAGTACATATT [CACACA_site8584]”, for which the “gcPBM binding intensity (ln)” value was 8.575 ± 0.007.

As for “TTTATAAAAAGCATAACACACACATGTCAATATATA [CACACA_site8286]”, the “gcPBM binding intensity (ln)” value came to 7.71 ± 0.52.

In the case of “ATACATTCAAAATATACACACATATATCTATAATAT [CACACA_site6576]”, the “gcPBM binding intensity (ln)” value amounted to 7.69 ± 0.65.

In the case of “TTTCTTTAGTAGAATGTAAAAAATATAATCTTCTTA [TGCATGCA_negctrl_site298]”, the “gcPBM binding intensity (ln)” value is 7.13 ± 0.57.

As for “TTATGTAGTATAATGAGTACTAAATATAGATATGTT [XGTACX_site6335]”, the “gcPBM binding intensity (ln)” value was 7.84 ± 0.5.

As for “AATTACTTAAATTATTGTACCCTAATGTTAATTTCA [XGTACX_site825]”, the “gcPBM binding intensity (ln)” value stood at 7.74 ± 0.73.

On to “AATATTATAAATGATACACACTTAAAATACAGACAC [CACACA_site8868]”, for which the “gcPBM binding intensity (ln)” value was 8.19 ± 0.4.

For the sequence “TTCATAAAAAATGTAGTGCATTGAATAAAATTACAT [GTGCAC_site9393]”, the “gcPBM binding intensity (ln)” value amounted to 10.4 ± 0.41.

Turning to “TTTTATATCTACCTTTGTACATATTTATTTTTTTTA [XGTACX_site7872]”, the “gcPBM binding intensity (ln)” value is 8.01 ± 0.74.

For the sequence “TTAATTTTGGTAAATGCATGTAATTAAAAATAAAAA [TGCATGCA_site234]”, the “gcPBM binding intensity (ln)” value worked out at 8.19 ± 0.8.

Consider “ATATTGAAATTAAAAAAATATATGAACAAATGATGA [CACACA_negctrl_site602]”, for which the “gcPBM binding intensity (ln)” value turned out to be 7.69 ± 0.59.

On to “TAAATTTTTTTTTTTTGTACACAAAAATATAATATT [XGTACX_site8151]”, for which the “gcPBM binding intensity (ln)” value turned out to be 7.61 ± 0.31.

In the case of “AAAATTATTAAATATGTACACACGTACATTTTATAA [CACACA_site8750]”, the “gcPBM binding intensity (ln)” value was determined as 7.72 ± 0.35.

Turning to “TATAAATATGTGTATACACACCTGATAAAGGTATAT [CACACA_site7283]”, the “gcPBM binding intensity (ln)” value is 8.14 ± 0.52.

On to “ATATATATATATATATGTACATATACACATGTGTGC [XGTACX_site168]”, for which the “gcPBM binding intensity (ln)” value stood at 9.39 ± 0.44.

Consider “AAATAAATAATAAATAAATAAATAAAATACCAAATA [GTGCAC_negctrl_site620]”, for which the “gcPBM binding intensity (ln)” value was determined as 7.61 ± 0.7.

On to “GCTTATGCTCAATATTGTACTTTTTTTATTTATTCA [XGTACX_site8863]”, for which the “gcPBM binding intensity (ln)” value amounted to 7.98 ± 0.62.

Regarding “TACTTCTTTTTTATTTATTTTACTTTTTATTCTGTA [CACACA_negctrl_site772]”, the “gcPBM binding intensity (ln)” value is 7.86 ± 0.66.

For the sequence “ATTTAATTTTTTTTTAAACACACATTTTTTTATTTA [CACACA_site8880]”, the “gcPBM binding intensity (ln)” value was 7.75 ± 0.54.

In the case of “TTCAATTATATTCTTTGTACGAATCTTCTATAAATT [XGTACX_site4346]”, the “gcPBM binding intensity (ln)” value is 8.02 ± 0.44.

On to “TACATAAACATTTATACACACATTATATATACATAT [CACACA_site8028]”, for which the “gcPBM binding intensity (ln)” value was determined as 7.85 ± 0.52.

“TGTGCTCGCTATTACACACTCATTGGGATAAAATTG [CACACA_site2029]”: the “gcPBM binding intensity (ln)” value is 7.76 ± 0.33.

Take “TGGCTTATTCAGAAATGTACACATATAAATATATAT [XGTACX_site3765]”: the “gcPBM binding intensity (ln)” value was 7.93 ± 0.35.

On to “TGAATAAATAAGATACGTACACACATATACAAAATA [XGTACX_site7758]”, for which the “gcPBM binding intensity (ln)” value was 7.95 ± 0.59.

For “TTTCTTTTAATTATCCGTACACAAACAATAAAATAA [XGTACX_site7841]”, the “gcPBM binding intensity (ln)” value came out at 8.195 ± 0.049.

(Values after the supplement of paper PMC11417369.)
